# Hit rate of the full screen: of about 360,000 compounds, about 6,000 (1.7%) were called active. The inconclusive results got no clear call from the source; some entries with a clear call stand among them for comparison. Calls follow the shape of the dose curve; as a rule, active = well fitted cell-killing curve with a large enough effect; inconclusive = small, poorly fitted or top-dose-only effect, or effect the other way; inactive = flat fitted curve, though single readings scatter. No potency is given beside an inconclusive call; the fits are too rough.
# Experiment: qHTS for induction of synthetic lethality in tumor cells producing 2HG: qHTS for the HT-1080-NT fibrosarcoma cell line;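 also: NT is the 2HG producing partner of a matched IDH1 knockdown line; nearly all actives have a fitted effect of over 55% in size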;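 as to activity, negative = less viability: 0% = DMSO-treated cells and -100% = media-only wells without cells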
# Settings: HT-1080-NT fibrosarcoma viability, CellTiter-Glo ATP luminescence, 48 h; activity, negative = less viability: at 46.1 µM (top of the series) unless noted
# How it was run: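 HT-1080-NT; 750 cells/well; 5% FBS RPMI; 48 h compound, 37 degrees C; CellTiter-Glo luminescence; curve fitting and curve-class assignment.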
# Potency is read from the fitted curve at half-maximal effect; tags tell the direction and shape of the fitted curve.
Compound,Potency,"activity, negative = less viability"
Cc1nc2c(OCc3ccc(OC(F)F)cc3)cccn2c1N(C)C(=O)CCC1CCCC1,"inconclusive [cytotoxic, single point]",–
COc1ccc(NC(=O)N(C)C[C@H]2OCCCC[C@@H](C)Oc3ccc(NC(=O)c4ccccc4)cc3C(=O)N([C@H](C)CO)C[C@@H]2C)cc1,–,inactive: 3.21%
COc1ccc(-n2c(-c3ccc(Br)cc3)c[n+]3c2CCC3)cc1,"inconclusive [cytotoxic, partial curve]",–
COc1cccc2cc(C(=O)NCc3ccco3)c(=Nc3ccc(C(=O)O)cc3)oc12,–,inconclusive: -2.67% [cytotoxic]
COc1ccc(C(=O)O)cc1Nc1cc(C)nc2ncnn12,–,inactive: -1.34%
c1ccc2c(CN3CCOCC3)c3ccccc3c(CN3CCOCC3)c2c1,–,inactive: 7.34%
Oc1c(Br)cc(Br)cc1C=NCc1ccccc1,"inconclusive [cytotoxic, single point]",–
COc1ccc(S(=O)(=O)NCc2ccccn2)cc1NC(=O)c1ccccc1C,"inconclusive [cytotoxic, full curve]",–
O=C(CSc1nc2ccccc2c(=O)n1-c1ccccc1)Nc1ccc2c(c1)CCC2,–,inactive: -1.89%
CCCCCCNC(=O)N[C@@H](C(=O)NCCC[C@H]1CN2C(=NC[C@@H]2Cc2ccccc2)N1CCc1cccc(OC)c1)C(C)C,–,inactive: 0%
CCc1nc2ccc(C(=O)NCCCN(C)C)cn2c1N(C)CCCc1ccccc1,active: 18.4 µM,–
CCOC(=O)N1CCN(C(=O)c2ccc3c(=O)n(-c4ccc(OC)cc4OC)c(=S)[nH]c3c2)CC1,–,inconclusive: 14%
COc1cc(/C=N/NC(=O)COc2ccc(Cl)cc2)ccc1OS(=O)(=O)c1ccc(C)cc1,"inconclusive [cytotoxic, single point]",–
COc1cc(/C=N/O)cc(Br)c1OCc1cccc(Cl)c1,"inconclusive [cytotoxic, single point]",–
CCOc1cc(/C=C2\SC(=S)N(Nc3ccccc3)C2=O)ccc1O,"inconclusive [cytotoxic, partial curve]",–
Cc1ccc(S(=O)(=O)Nc2ccc(Cl)cc2)cc1NC(=O)c1cc2c(s1)CCCC2,"inconclusive [cytotoxic, single point]",–
CN(C)/C=N/S(=O)(=O)c1ccc(Cl)c(Cl)c1,–,inactive: 7.87%
COC(=O)[C@]12CCCCC=C1N(CCC1=CCCCC1)C(=O)[C@H](CC(=O)NCCc1ccccc1OC)C2,"inconclusive [cytotoxic, single point]",–
CN(CC(=O)Nc1cccc(F)c1)C(=O)CCSc1ccc(F)cc1,–,inconclusive: -23.9% [cytotoxic]
O=C(Cc1ccccc1)NNc1ccc2ccccc2c1,"inconclusive [cytotoxic, full curve]",–
Cc1ccc2nc(N3CCN(S(=O)(=O)c4ccc(C)c(Cl)c4)CC3)c(C#N)cc2c1,"inconclusive [cytotoxic, single point]",–
O=C(CSc1n[nH]c(-c2ccccc2)n1)c1ccccc1,"inconclusive [rising, full curve, poor fit]",–
CCn1c(SCC(=O)NCCc2ccccc2)nc2c([nH]c3ccccc32)c1=O,"inconclusive [cytotoxic, full curve, poor fit]",–

Compound,Potency,"activity, negative = less viability"
COc1cc(/C=N/Nc2nncn2/N=C/c2ccc(O)c(OC)c2)ccc1O,active: 20.6 µM,–
O=C(Nc1ccc(Cl)cc1)c1csc(-c2ccccc2)n1,–,inactive: -8.2%
COC(=O)[C@]12CCCCC=C1N(Cc1ccc(Cl)cc1Cl)C(=O)[C@H](CC(=O)NCc1ccc(C)o1)C2,"inconclusive [cytotoxic, single point]",–
COc1cc(OC)c2c(-c3cccc(-c4ccc(N(C)C)cc4)c3)cc(=O)oc2c1,"inconclusive [cytotoxic, full curve]",–
O=C(COc1ccccc1)NCc1ccco1,–,inconclusive: 5.61% [cytotoxic]
CN1CCN(CC#Cc2ccccc2)CC1CCO (centres undefined),–,inactive: 14.5%
Cc1ccc(OCCn2c(C)nc3ccccc32)cc1,–,inactive: -10.4%
Cc1cccc(C)c1OCc1cc(C(=O)N(C)Cc2nc3ccccc3[nH]2)no1,–,inactive: -7.87%
CCOC(=O)Nc1ccc2c(c1)N(C(=O)CCN(CC)CC)c1ccccc1CC2,"inconclusive [cytotoxic, partial curve]",–
CC(C)(C)OC(=O)C(Cl)(C(=O)OC(C)(C)C)c1ccc2nnnn2n1,"inconclusive [cytotoxic, single point]",–
CN1C(CC(=O)Nc2ccc(Br)cc2)c2ccccc2CC1(C)C (centres undefined),active: 18.4 µM,–
CCCCOc1ccccc1NC(=O)C=C(C)C,–,inactive: 0.171%
O=C(N/N=C\c1ccc([N+](=O)[O-])s1)C1COc2ccccc2O1 (centres undefined),"inconclusive [cytotoxic, single point]",–
Cc1cnc(C)c(Nc2nc(C(N)Cc3ccc(F)cc3)cs2)n1 (centres undefined),active: 20.6 µM,–
Cc1ccc(CN(Cc2cc3cc4c(cc3[nH]c2=O)OCCO4)Cc2nnnn2Cc2ccco2)cc1,–,inactive: -29%
CSc1ccccc1NC(=O)c1cc2c(=O)n3ccccc3nc2s1,"inconclusive [cytotoxic, single point]",–
O=C(CSCc1ccc(Br)cc1)Nc1ccc(S(=O)(=O)N2CCCCCC2)cc1,"inconclusive [cytotoxic, single point]",–
NC(Cc1ccc(F)cc1)c1csc(NC(=O)NC(c2ccccc2)c2ccccc2)n1 (centres undefined),active: 18.4 µM,–
Cc1ccnc(NC(=O)c2ccc([N+](=O)[O-])o2)c1,"inconclusive [cytotoxic, single point]",–
CC1=C(C(=O)Nc2ccccc2)C(c2ccc(C)cc2)N=C(Nc2nc3ccccc3o2)N1 (centres undefined),"inconclusive [cytotoxic, single point]",–
COc1cc(/C=N/NC(=O)c2cccnc2)ccc1OC(=O)c1cc(OC)c(OC)c(OC)c1,"inconclusive [cytotoxic, partial curve]",–
CCOC(=O)C1=C(c2ccccc2)N=c2s/c(=C\c3ccc(O)cc3)c(=O)n2C1c1cccs1 (centres undefined),"inconclusive [cytotoxic, single point]",–
Fc1ccc(COc2ccc3ccccc3c2CNc2nn[nH]n2)cc1,"inconclusive [cytotoxic, single point]",–

Compound,Potency,"activity, negative = less viability"
CC1(Cc2ccc(Cl)cc2)C(=O)Nc2ccc(S(=O)(=O)NC3CCCCC3)cc21 (centres undefined),"inconclusive [cytotoxic, single point]",–
COc1ccc(CC/C(C)=N\NC(N)=O)cc1,–,inactive: 15.6%
Cc1ccc(S(=O)(=O)N2CCN(C3CCN(Cc4ccccc4)CC3)CC2)cc1,"inconclusive [cytotoxic, single point]",–
Nc1nn(-c2ccccc2)c2ccc([N+](=O)[O-])cc12,"inconclusive [cytotoxic, partial curve]",–
COc1ccc(NS(=O)(=O)c2ccc(-c3coc(C)n3)cc2)cc1OC,–,inactive: 2.88%
Cc1onc(-c2c(Cl)cccc2Cl)c1C(=O)NN1CCCCCC1,–,inactive: 11%
O=C1C=C(Nc2ccc(O)cc2)CC(c2ccco2)C1 (centres undefined),"inconclusive [cytotoxic, partial curve]",–
Cn1cc(Cl)c(C(=O)Nc2nc3ccccc3s2)n1,"inconclusive [cytotoxic, single point]",–
Cc1ccc(Cl)cc1NC(=S)N(Cc1cccnc1)Cc1ccccc1Cl,"inconclusive [cytotoxic, single point]",–
Cc1ccc(OCc2cc(C(=O)N(C)C3CCCc4ccccc43)no2)cc1C (centres undefined),"inconclusive [cytotoxic, single point]",–
COc1ccc(-n2c(C)cc(C(=O)COC(=O)Cc3n[nH]c(=O)c4ccccc34)c2C)cc1,"inconclusive [cytotoxic, single point]",–
CCN(CC)S(=O)(=O)c1ccc(Cl)c(NC(=O)COc2ccc(OC)cc2[N+](=O)[O-])c1,–,inactive: -12.5%
CCN(C(=O)c1ccc(Cl)c([N+](=O)[O-])c1)c1ccccc1,–,inactive: 13%
CC(=O)Nc1ccc(S(=O)(=O)N(C)CC(=O)NNC(=O)Cc2nc3ccccc3n2C)cc1,–,inactive: 5.83%
CCc1ccc(NC(=S)NC2CC3CCCC(C2)N3Cc2cccs2)cc1 (centres undefined),"inconclusive [cytotoxic, partial curve]",–
O=C(NC(NC(=O)c1c(F)cccc1F)c1ccc([N+](=O)[O-])cc1)c1c(F)cccc1F,"inconclusive [cytotoxic, partial curve]",–
CC(=O)N(C(C)=O)c1ncnc2c1c(-c1ccc(Cl)cc1)nn2C(C)(C)C,"inconclusive [cytotoxic, partial curve]",–
Cc1sc(NC(=O)c2cccc(N3C(=O)CCC3=O)c2)nc1-c1ccccc1,–,inactive: -7.17%
Cc1ccccc1N1CCN(S(=O)(=O)C[C@]23CCC(CC2NC(=O)[C@@H](N)CCS(C)(=O)=O)C3(C)C)CC1 (some centres undefined),"inconclusive [cytotoxic, single point]",–
O=C(NCCCN1CCCC1)C1CCN(C(=O)c2cc3sccc3n2Cc2ccc(F)cc2)CC1,"inconclusive [cytotoxic, single point]",–
O=C(NCCc1ccc(Cl)cc1)Nc1ccc(Cl)cc1,–,inactive: -0.71%
c1ccc2c(c1)nc(N1CCOCC1)c1c3ccccc3[nH]c21,–,inactive: 9.17%
CCC1(C)Cc2c(sc3nnn(CC(=O)Nc4ccc(Cl)cc4)c(=O)c23)CO1 (centres undefined),"inconclusive [cytotoxic, single point]",–

# — PubChem BioAssay AID686970 (National Center for Advancing Translational Sciences (NCATS), 2013)
